Out of some 310,000 compounds screened, about 14,000 (4.5%) showed an effect of 50% or more. Effects have a minus sign here. The list shows a part of the results.
Target: human ether-à-go-go-related gene (hERG) potassium channel (human, UniProt Q12809)
Experiment: primary screen, population patch clamp on CHO cells stably expressing hERG
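Also: peak tail current of the secondary pulse compared with the same well before compound.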

human ether-à-go-go-related gene (hERG) potassium channel, sequence (Q12809 whole entry, looked up): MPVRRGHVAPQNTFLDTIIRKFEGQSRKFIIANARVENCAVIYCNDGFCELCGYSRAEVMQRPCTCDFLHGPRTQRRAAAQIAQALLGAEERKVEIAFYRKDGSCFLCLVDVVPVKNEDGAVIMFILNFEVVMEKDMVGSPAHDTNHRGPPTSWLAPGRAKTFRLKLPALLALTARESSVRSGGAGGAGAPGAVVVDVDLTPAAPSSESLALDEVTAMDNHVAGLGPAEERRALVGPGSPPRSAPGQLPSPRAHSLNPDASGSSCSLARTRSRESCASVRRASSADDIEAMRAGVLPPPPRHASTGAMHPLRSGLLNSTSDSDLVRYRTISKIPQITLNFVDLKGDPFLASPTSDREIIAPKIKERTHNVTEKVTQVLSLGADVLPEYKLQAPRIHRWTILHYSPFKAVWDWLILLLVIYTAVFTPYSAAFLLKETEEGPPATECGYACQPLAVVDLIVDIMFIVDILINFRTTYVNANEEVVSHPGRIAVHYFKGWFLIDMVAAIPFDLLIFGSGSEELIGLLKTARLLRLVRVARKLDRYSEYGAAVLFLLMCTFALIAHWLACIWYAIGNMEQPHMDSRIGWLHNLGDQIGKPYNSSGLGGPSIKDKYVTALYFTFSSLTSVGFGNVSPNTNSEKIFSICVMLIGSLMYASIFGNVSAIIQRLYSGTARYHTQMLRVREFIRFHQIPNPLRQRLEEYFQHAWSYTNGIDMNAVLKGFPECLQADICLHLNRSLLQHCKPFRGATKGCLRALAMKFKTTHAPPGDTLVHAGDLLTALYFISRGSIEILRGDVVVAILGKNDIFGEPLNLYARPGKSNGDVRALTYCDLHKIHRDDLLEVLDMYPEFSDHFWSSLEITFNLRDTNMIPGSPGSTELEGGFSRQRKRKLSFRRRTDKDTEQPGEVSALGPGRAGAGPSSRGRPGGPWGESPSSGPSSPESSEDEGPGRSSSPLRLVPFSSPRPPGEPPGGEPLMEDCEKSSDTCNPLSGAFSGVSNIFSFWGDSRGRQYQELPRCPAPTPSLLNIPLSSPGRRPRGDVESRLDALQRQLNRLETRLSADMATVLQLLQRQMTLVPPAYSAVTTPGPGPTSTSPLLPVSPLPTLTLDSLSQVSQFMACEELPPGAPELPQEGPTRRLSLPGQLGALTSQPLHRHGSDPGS

Row | Compound | hERG current change (%, negative = inhibition) at 10uM
1 | CCCOC(=O)C1=C(C)N(C)C(=O)NC1c1cc2c(cc1Br)OCO2 (stereo not drawn) | -0.94%
2 | Cc1c(O)nc(SCC(=O)Nc2ccc3c4c(cccc24)CC3)n(-c2ccc(F)cc2)c1=O | -7.83%
3 | Cc1cc(C(=O)NNC(=O)c2nn(C)c(=O)c3ccccc23)c(C)o1 | -0.338%
4 | C[C@H](NC(=O)[C@@H]1Cc2ccccc2CN1)C(=O)Nc1ccc2c(c1)OCO2 | 14.3%
5 | O=C(CN1CCC(C(=O)c2ccc(Cl)cc2)CC1)NC1CCCC1 | -19.3%
6 | O=C(NCc1cccs1)c1ccc2c(c1)OCCO2 | 13%
7 | CCOC(=O)CCNC(=O)Nc1ccc2nc(C)n(Cc3ccc(Cl)cc3)c(=O)c2c1 | -10.5%
8 | CCc1nc(C)cn1S(=O)(=O)c1cc(F)ccc1OC | 20%
9 | CC(C)Cc1nnc(NC(=O)CC(=O)Nc2ccccc2C(=O)O)s1 | 13.1%
10 | O=C(Cn1cnc([N+](=O)[O-])n1)NCc1ccccc1 | -3.56%
11 | N#CCCN(C(=O)CSc1nc(-c2ccccc2)cn1N)c1ccc(F)cc1 | -2.25%
12 | O=C(Cc1cccc2ccccc12)Nc1ccc(O)cc1C(=O)O | 15.4%
13 | CC(C)C(=O)NC(=S)Nc1ccccc1F | 0.45%
14 | O=C(Cn1ncc2c3ccccc3n(Cc3ccccc3F)c2c1=O)NCC1CCCO1 (stereo not drawn) | 11%
15 | O=C1C=C(NCC2CCCO2)C2(CCCCC2)O1 (stereo not drawn) | 9.66%
16 | COC(=O)c1ccc(NC(=O)Nc2ccc([N+](=O)[O-])cc2)cc1 | 12.5%
17 | Cc1cc2c(cc1C)-c1c(ssc1=Nc1ccc(S(N)(=O)=O)cc1)C(C)(C)N2 | 18.3%
18 | CCCCNS(=O)(=O)c1ccc2nc(SCC(N)=O)[nH]c2c1 | 15.1%
19 | O=C(CCS(=O)(=O)Cc1ccccc1)NCCc1ccccc1 | -1.42%

Row | Compound | hERG current change (%, negative = inhibition) at 10uM
20 | COc1ccccc1/C=C/C(=O)N1CCC(c2ccccc2)C1 (stereo not drawn) | -4.29%
21 | C=CCOC(=O)C1=C[C@@H](c2csc3ccccc23)C[C@@H](OCCCCO)O1 | -16.9%
22 | O=C(CNC(=O)c1ccco1)OCC(=O)c1ccccc1 | 9.74%
23 | O=C(/C=C/c1ccccc1Cl)NC1CCCCC1 | 18.8%
24 | C=CCC1(N(C(C)=O)c2ccccc2C)CCCCC1 | -3.93%
25 | O=C(CCNC(=O)c1ccco1)Nc1cccc(Br)c1 | -11.6%
26 | CCOc1cccc(-c2nnc(SCC(=O)NC3CC3)n2C)c1 | -9.81%
27 | Cc1ccc(C(=O)COC(=O)CSc2cccc3cccnc23)c(C)c1 | 4.91%
28 | O=C(COC(=O)c1cccs1)Nc1cc(S(=O)(=O)N2CCOCC2)ccc1Cl | -35.5%
29 | O=C(CN(C(=O)CCC(=O)Nc1nccs1)c1ccccc1F)NCc1ccc(F)cc1 | 1.98%
30 | Cc1cc(CSc2ccccc2C(=O)O)on1 | 17.5%
31 | CC(=O)NCCc1nc2ccccc2n1CCCCOc1ccccc1 | -38.6%
32 | C=CC(O)Cc1c(C)n[nH]c1C (stereo not drawn) | -2.98%
33 | CSCC(=O)N1CCC(Oc2cccc(C(=O)NCc3ccccn3)c2)CC1 | 16%
34 | Cc1ccc(N2C(=O)Cc3ccccc3C2=O)cc1 | 19.9%
35 | O=S(=O)(Nc1ccc(Cl)cn1)c1ccc(Cl)cc1 | 16.3%
36 | O=C1C(=O)N(CCCO)C(c2ccc(Br)cc2)/C1=C(\O)c1ccc(Br)cc1 (stereo not drawn) | 4.02%
37 | O=P1(Nc2ccc(F)cc2)COc2ccccc2OC1 | -17.2%
38 | O=C(Cc1ccccc1)Nc1cccc(-c2nc3ncccc3o2)c1 | 13.6%

Row | Compound | hERG current change (%, negative = inhibition) at 10uM
39 | C[C@]12C(=O)N(c3cccc(F)c3)C(=O)N1[C@@H]1c3ccccc3OC[C@@H]1[C@H]2c1ccccc1 | 13%
40 | COCCn1c(N)c(C(=O)Nc2sc3c(c2C(=O)OC)CCCC3)c2nc3ccccc3nc21 | 5.87%
41 | C/C(CC(=O)Nc1ccccc1C#N)=N\NC(=O)c1ccncc1 | -2.97%
42 | C/C(=N\O)c1c(C)c2ccccc2n1C | -4.71%
43 | CC(C)(C)C(=O)N(CCN(C(=O)C(C)(C)C)c1ccccc1)c1ccccc1 | 16.4%
44 | CCCCCCNC(=O)CCCCCNS(=O)(=O)c1ccc(Br)cc1 | -4.75%
45 | O=C(COc1ccc(Cl)cc1)NCCSCc1cccc(Cl)c1 | -13.5%
46 | Cc1ccc(NC(=O)C2(c3cccs3)CCOCC2)cc1C | -10.6%
47 | CSc1nc2nc(-c3cccc(C(F)(F)F)c3)ccn2n1 | 17.2%
48 | Cc1cc(C(=O)COc2cccnc2[N+](=O)[O-])c(C)n1Cc1cccs1 | -8.03%
49 | CCNC(=O)/C(C#N)=C/c1c(N2CCN(c3ccc(OC)cc3)CC2)nc2c(C)cccn2c1=O | -22.1%
50 | Cc1ccc(-c2nc(CS(=O)CC(=O)NCCN3CCCCCC3)c(C)o2)cc1 (stereo not drawn) | -15.7%
51 | Cc1ccc(NS(=O)(=O)c2cc(C(=O)NCCSC3CCCCC3)ccc2C)cc1 | -6.77%
52 | COc1c(F)c(F)c(C(=O)O)c(Nc2cc(C)cc(C)c2)c1F | 13.1%
53 | O=C1CC(Nc2ccc(N3CCOCC3)cc2)C(=O)N1C1CCCCC1 (stereo not drawn) | 1.12%
54 | COc1ccccc1/C=C/C1(C(=O)NC2CCCC2)CC(=O)N1c1ccc(F)cc1 (stereo not drawn) | 7.84%
55 | CCOC(=O)c1cc(-c2ccccc2)n(CC(=O)Nc2cc(OC)cc(OC)c2)c1C | 10.8%
56 | C=CCn1nc(-c2ccccc2)c(N2CCCCC2)cc1=O | -14.2%
57 | Cc1cc(OCCCCNC(C)C)cc(C(C)C)c1.O=C(O)C(=O)O | -29.6%

— article PMC4336329 (PLoS ONE, 2015)
